# The other results are listed elsewhere or left out. The list includes weakly bound sequences.
# Target: T1, MBP-FoxP3dN (UniProt Q99JB6)
# T1 sequence: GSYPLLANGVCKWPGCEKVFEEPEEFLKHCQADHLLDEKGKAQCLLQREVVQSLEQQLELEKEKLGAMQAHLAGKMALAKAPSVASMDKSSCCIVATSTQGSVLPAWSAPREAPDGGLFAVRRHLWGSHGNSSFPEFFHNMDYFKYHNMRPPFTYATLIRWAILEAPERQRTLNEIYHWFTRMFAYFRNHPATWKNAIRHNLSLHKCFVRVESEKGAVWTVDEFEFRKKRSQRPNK
# Assay: PD-seq (MBP pull-down with sequencing)
# Settings: 20 mM Tris-HCl pH 7.5, 100 mM NaCl, 1.5 mM MgCl2, 0.4 uM protein, 0.1 uM dsDNA library, 30 min, room temperature, amylose pull-down; high values mean tight binding; double strand, one strand shown
row,Sequence,binding signal (RPM ratio (pull-down/input))
1,GATGATTGTTCTCCCAGCTGATGAATTAAATTACTCGAGTAAACAAATTTTCCTAATCTTTCTGTTCAAGCGCCATCTAC,1.21
2,GATGATTGTTCTCCCAGCTGATGAATTTCGCATCTCGAGTAAACAAATTTTCCTAATCTTTCTGTTCAAGCGCCATCTAC,6.74
3,GATGATTGTTCTCCCAGCTGATGAATTGTGCCCATCGAGTAAACAAATTTTCCTAATCTTTCTGTTCAAGCGCCATCTAC,2.27
4,GATGATTGTTCTCCCAGCTGATGAATTTATTTAGTCGAGTAAACAAATTTTCCTAATCTTTCTGTTCAAGCGCCATCTAC,5.5
5,GATGATTGTTCTCCCAGCTGATGAATTCACCGGCTCGAGTAAACAAATTTTCCTAATCTTTCTGTTCAAGCGCCATCTAC,0.214
6,GATGATTGTTCTCCCAGCTGATGAATTACCGTAGTCGAGTAAACAAATTTTCCTAATCTTTCTGTTCAAGCGCCATCTAC,0.374
7,GATGATTGTTCTCCCAGCTGATGAATTAGTTTTGTCGAGTAAACAAATTTTCCTAATCTTTCTGTTCAAGCGCCATCTAC,4.7
8,GATGATTGTTCTCCCAGCTGATGAATTAATTGTGTCGAGTAAACAAATTTTCCTAATCTTTCTGTTCAAGCGCCATCTAC,4.27
9,GATGATTGTTCTCCCAGCTGATGAATTAGCTGGCTCGAGTAAACAAATTTTCCTAATCTTTCTGTTCAAGCGCCATCTAC,0.476
10,GATGATTGTTCTCCCAGCTGATGAATTAGGCCAATCGAGTAAACAAATTTTCCTAATCTTTCTGTTCAAGCGCCATCTAC,0.67
11,GATGATTGTTCTCCCAGCTGATGAATTATACCCATCGAGTAAACAAATTTTCCTAATCTTTCTGTTCAAGCGCCATCTAC,0.433
12,GATGATTGTTCTCCCAGCTGATGAATTTCATGGGTCGAGTAAACAAATTTTCCTAATCTTTCTGTTCAAGCGCCATCTAC,0.354
13,GATGATTGTTCTCCCAGCTGATGAATTGTCCTTGTCGAGTAAACAAATTTTCCTAATCTTTCTGTTCAAGCGCCATCTAC,0.388
14,GATGATTGTTCTCCCAGCTGATGAATTCTCTTTGTCGAGTAAACAAATTTTCCTAATCTTTCTGTTCAAGCGCCATCTAC,0.713
15,GATGATTGTTCTCCCAGCTGATGAATTTGTCAGCTCGAGTAAACAAATTTTCCTAATCTTTCTGTTCAAGCGCCATCTAC,2.09
16,GATGATTGTTCTCCCAGCTGATGAATTCTTCAGGTCGAGTAAACAAATTTTCCTAATCTTTCTGTTCAAGCGCCATCTAC,0.209
17,GATGATTGTTCTCCCAGCTGATGAATTTCCATCCTCGAGTAAACAAATTTTCCTAATCTTTCTGTTCAAGCGCCATCTAC,0.298
18,GATGATTGTTCTCCCAGCTGATGAATTGAAAAAATCGAGTAAACAAATTTTCCTAATCTTTCTGTTCAAGCGCCATCTAC,0.17
19,GATGATTGTTCTCCCAGCTGATGAATTTGGGTCCTCGAGTAAACAAATTTTCCTAATCTTTCTGTTCAAGCGCCATCTAC,0.676
20,GATGATTGTTCTCCCAGCTGATGAATTTGCTGCGTCGAGTAAACAAATTTTCCTAATCTTTCTGTTCAAGCGCCATCTAC,2.23

row,Sequence,binding signal (RPM ratio (pull-down/input))
1,GATGATTGTTCTCCCAGCTGATGAATTTCATGTGTCGAGTAAACAAATTTTCCTAATCTTTCTGTTCAAGCGCCATCTAC,1.1
2,GATGATTGTTCTCCCAGCTGATGAATTCGCGATCTCGAGTAAACAAATTTTCCTAATCTTTCTGTTCAAGCGCCATCTAC,0.437
3,GATGATTGTTCTCCCAGCTGATGAATTCCTGTTCTCGAGTAAACAAATTTTCCTAATCTTTCTGTTCAAGCGCCATCTAC,0.461
4,GATGATTGTTCTCCCAGCTGATGAATTAGGTCATTCGAGTAAACAAATTTTCCTAATCTTTCTGTTCAAGCGCCATCTAC,0.683
5,GATGATTGTTCTCCCAGCTGATGAATTATTGTAATCGAGTAAACAAATTTTCCTAATCTTTCTGTTCAAGCGCCATCTAC,1.63
6,GATGATTGTTCTCCCAGCTGATGAATTTCATGGATCGAGTAAACAAATTTTCCTAATCTTTCTGTTCAAGCGCCATCTAC,0.283
7,GATGATTGTTCTCCCAGCTGATGAATTTATCTACTCGAGTAAACAAATTTTCCTAATCTTTCTGTTCAAGCGCCATCTAC,1.38
8,GATGATTGTTCTCCCAGCTGATGAATTCCGAAGTTCGAGTAAACAAATTTTCCTAATCTTTCTGTTCAAGCGCCATCTAC,0.278
9,GATGATTGTTCTCCCAGCTGATGAATTTTTCGGGTCGAGTAAACAAATTTTCCTAATCTTTCTGTTCAAGCGCCATCTAC,0.184
10,GATGATTGTTCTCCCAGCTGATGAATTGGGAATCTCGAGTAAACAAATTTTCCTAATCTTTCTGTTCAAGCGCCATCTAC,1.41
11,GATGATTGTTCTCCCAGCTGATGAATTTTGCCTGTCGAGTAAACAAATTTTCCTAATCTTTCTGTTCAAGCGCCATCTAC,5.62
12,GATGATTGTTCTCCCAGCTGATGAATTACAAGGTTCGAGTAAACAAATTTTCCTAATCTTTCTGTTCAAGCGCCATCTAC,0.394
13,GATGATTGTTCTCCCAGCTGATGAATTTTCGCTTTCGAGTAAACAAATTTTCCTAATCTTTCTGTTCAAGCGCCATCTAC,0.813
14,GATGATTGTTCTCCCAGCTGATGAATTTTAATGCTCGAGTAAACAAATTTTCCTAATCTTTCTGTTCAAGCGCCATCTAC,0.682
15,GATGATTGTTCTCCCAGCTGATGAATTATTGGTCTCGAGTAAACAAATTTTCCTAATCTTTCTGTTCAAGCGCCATCTAC,1.2
16,GATGATTGTTCTCCCAGCTGATGAATTTAGTTGCTCGAGTAAACAAATTTTCCTAATCTTTCTGTTCAAGCGCCATCTAC,2.92
17,GATGATTGTTCTCCCAGCTGATGAATTTCTGGCTTCGAGTAAACAAATTTTCCTAATCTTTCTGTTCAAGCGCCATCTAC,0.283
18,GATGATTGTTCTCCCAGCTGATGAATTCTTTTGGTCGAGTAAACAAATTTTCCTAATCTTTCTGTTCAAGCGCCATCTAC,0.31
19,GATGATTGTTCTCCCAGCTGATGAATTCAGACTATCGAGTAAACAAATTTTCCTAATCTTTCTGTTCAAGCGCCATCTAC,0.468
20,GATGATTGTTCTCCCAGCTGATGAATTAAGCTCGTCGAGTAAACAAATTTTCCTAATCTTTCTGTTCAAGCGCCATCTAC,0.472

# From publication PMC12820563
